Laboratory results: the supplement of paper PMC4166925
± gives the standard deviation of the averaged measurements. In all, about 33,000 sequences were measured (“E-score (dimensionless, -0.5 to 0.5)”: median about -0.049, highest 2% from about 0.37 on). Some of the results follow.

Tested on: T1, PmTbr T-box DNA-binding domain (GST fusion)
T1 sequence: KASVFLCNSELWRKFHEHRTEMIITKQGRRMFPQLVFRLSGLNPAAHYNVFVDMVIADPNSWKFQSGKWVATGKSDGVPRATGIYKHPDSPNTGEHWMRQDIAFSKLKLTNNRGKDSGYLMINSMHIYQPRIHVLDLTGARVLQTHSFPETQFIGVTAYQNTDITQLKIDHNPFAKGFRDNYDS
Assay: PBM E-score of 8-mer (E-score (dimensionless, -0.5 to 0.5)); Tbr is Tbrain of the sea star Patiria miniata (Pm) or the sea urchin Strongylocentrotus purpuratus (Sp); higher = stronger binding preference; most listed sequences are background and not binding sites
Conditions: the construct has about 5 more residues each side
Outline: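 Primer extension turned Universal Agilent oligonucleotide arrays double-stranded. They were incubated with 200 nM protein in PBS (pH 7.5); the protein was a GST-fused Tbr T-box DNA-binding domain expressed in BL21 E. coli at 20 °C and purified on glutathione. Every ungapped 8-mer was scored from the scanned, quantified probe intensities, and the Universal PBM Analysis Suite gave each an enrichment E-score averaged over duplicate arrays.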

| Sequence | PBM E-score of 8-mer |
| --- | --- |
| CACAGAGG | 0.000915 ± 0.022 |
| ACACTTCG | 0.427 ± 0.0093 |
| CCTGGCCG | 0.0174 ± 0.0049 |
| AAATTTCT | -0.0991 ± 0.11 |
| CCTATGCA | -0.116 ± 0.038 |
| AGGTAATG | -0.219 ± 0.025 |
| GCTTGGAA | -0.256 ± 0.031 |
| AATTTAAA | -0.0177 ± 0.17 |
| GACCACGC | -0.0344 ± 0.04 |
| CCACACGC | 0.132 ± 0.032 |
| TCTCGCCA | 0.254 ± 0.022 |
| CAAGTAAA | -0.012 ± 0.06 |
| CGTTGTTC | -0.162 ± 0.0058 |
| CGTGCTAC | 0.185 ± 0.0064 |
| ACCTGGTC | -0.0118 ± 0.057 |
| CTGGTAGA | -0.123 ± 0.012 |
| ACAATTTC | -0.0486 ± 0.02 |
| CGGGGTAA | -0.0278 ± 0.04 |
| CCATCCAA | -0.275 ± 0.032 |
| CATTCGGA | -0.399 ± 0.054 |
| ATCTGCCG | -0.163 ± 0.064 |
| CTCTGTAA | 0.00881 ± 0.032 |
| GCTTCCGA | -0.242 ± 0.057 |
| ATATGGTG | 0.189 ± 0.0099 |
| GACCAGTA | -0.339 ± 0.047 |

| Sequence | PBM E-score of 8-mer |
| --- | --- |
| CCAACTTC | -0.0654 ± 0.06 |
| GTGAATTA | 0.1983 ± 0.00084 |
| ACCCCCAG | -0.098 ± 0.0044 |
| AGCTTCCA | -0.231 ± 0.0047 |
| CTTAGAGC | -0.126 ± 0.083 |
| ACAGAGGT | 0.0917 ± 0.035 |
| CGTTGAAC | -0.16 ± 0.006 |
| GGGTGGTA | 0.121 ± 0.07 |
| AGCGATAA | 0.108 ± 0.019 |
| CGTAACAC | 0.365 ± 0.011 |
| ACAGGCCT | -0.272 ± 0.04 |
| AGGACGTA | -0.142 ± 0.037 |
| GGTCGGAA | 0.0241 ± 0.014 |
| AAAACAGG | 0.0244 ± 0.055 |
| CAGTCAAC | -0.00364 ± 0.076 |
| ATGCACAG | -0.182 ± 0.025 |
| AGACAACC | -0.14 ± 0.013 |
| AATGTCAA | 0.0345 ± 0.052 |
| CAGTTTTC | 0.0449 ± 0.02 |
| AGCCTGAG | -0.196 ± 0.038 |
| CATTAAGA | -0.221 ± 0.087 |
| TATGCAGA | 0.0147 ± 0.029 |
| ACATAAAG | -0.00286 ± 0.12 |
| AGCAGCCC | -0.2 ± 0.028 |
| GGGCTCTA | -0.0697 ± 0.023 |

| Sequence | PBM E-score of 8-mer |
| --- | --- |
| CCCATCGA | -0.171 ± 0.068 |
| ACAGGTTC | 0.127 ± 0.0093 |
| CGATACCG | 0.0117 ± 0.029 |
| AAGTAGGA | -0.0354 ± 0.024 |
| ACTTGCTA | 0.266 ± 0.053 |
| GTAAGTGA | 0.264 ± 0.0097 |
| CGATATGA | 0.0653 ± 0.066 |
| AATTGCTA | 0.0917 ± 0.016 |
| CTCCTCCC | -0.206 ± 0.033 |
| ACCCCCGT | -0.0282 ± 0.12 |
| CCTTACGC | 0.151 ± 0.012 |
| AATTACTA | -0.082 ± 0.044 |
| CATATTAC | -0.0844 ± 0.0063 |
| GCTGAAAC | -0.0556 ± 0.028 |
| CATACTCC | -0.173 ± 0.044 |
| AGTTGCTG | -0.00151 ± 0.072 |
| AAGATACG | 0.0813 ± 0.1 |
| CGCATAAG | 0.0338 ± 0.011 |
| AATGCTGG | -0.209 ± 0.026 |
| AGACTCGC | 0.0603 ± 0.0075 |
| ACGGGGCA | -0.145 ± 0.094 |
| ATTCTGGG | -0.114 ± 0.027 |
| CCCGCGGA | -0.0886 ± 0.065 |
| AAACCAAG | -0.0652 ± 0.0092 |
| ATGAGTCG | -0.169 ± 0.025 |

| Sequence | PBM E-score of 8-mer |
| --- | --- |
| GACAGCTA | 0.244 ± 0.02 |
| ATACAGGC | 0.0158 ± 0.034 |
| CCTGCAAC | -0.0436 ± 0.095 |
| ATTAAATA | -0.112 ± 0.032 |
| AGATGTAC | -0.275 ± 0.024 |
| ATTATCAG | -0.0355 ± 0.028 |
| CGATGAGA | -0.0609 ± 0.078 |
| AGGGTAAC | 0.0462 ± 0.052 |
| CCTATGTA | -0.24 ± 0.069 |
| GTATAGAC | -0.145 ± 0.019 |
| AGCAGGTA | -0.0669 ± 0.01 |
| ACCAAGGC | -0.0484 ± 0.083 |
| CGCAAACG | 0.0243 ± 0.048 |
| CAAACCGG | -0.0337 ± 0.00061 |
| CGGCGCTA | 0.239 ± 0.033 |
| GCAGATGA | -0.155 ± 0.068 |
| AGTGTCCG | 0.183 ± 0.015 |
| ATAGTCAC | 0.205 ± 0.027 |
| AGGATATC | -0.00124 ± 0.011 |
| GCTCTGAA | -0.202 ± 0.054 |
| ATCCGGGA | -0.172 ± 0.048 |
| ACGGTAAC | 0.0217 ± 0.0084 |
| AAGGTCCC | -0.225 ± 0.012 |
| CAGACCGA | -0.283 ± 0.012 |
| CTTGATCA | 0.049 ± 0.0072 |

| Sequence | PBM E-score of 8-mer |
| --- | --- |
| ACGAATCT | 0.0521 ± 0.069 |
| GCCACAAA | 0.0605 ± 0.0025 |
| CGATTCAA | -0.0063 ± 0.026 |
| ATCACACC | 0.4877 ± 0.0026 |
| CATGTGGA | -0.0456 ± 0.085 |
| GGGCTCAC | 0.0294 ± 0.044 |
| AGACGAAC | -0.12 ± 0.011 |
| ACCAGGTC | -0.101 ± 0.039 |
| CTCTACAC | 0.0228 ± 0.05 |
| CAGGACAA | -0.0885 ± 0.013 |
| GAAAATCA | -0.059 ± 0.068 |
| CCGTACGA | -0.137 ± 0.058 |
| CCGGCCGC | -0.155 ± 0.027 |
| AGTCATGC | -0.221 ± 0.03 |
| CCCACGTA | 0.0492 ± 0.04 |
| CTTCACCA | 0.0251 ± 0.00097 |
| AGGAAATA | 0.1 ± 0.069 |
| ACACTCAG | 0.234 ± 0.017 |
| AATTGTAT | -0.0967 ± 0.012 |
| ATTTTGGA | -0.228 ± 0.05 |
| CACTTCCC | 0.3321 ± 0.00048 |
| ACAGTGTC | 0.238 ± 0.0038 |
| TGTCAAAA | 0.287 ± 0.056 |
| CTGAAATC | -0.143 ± 0.02 |
| CTCTAGGA | -0.311 ± 0.059 |

| Sequence | PBM E-score of 8-mer |
| --- | --- |
| AAAAAAGG | -0.0703 ± 0.013 |
| AGGAATCA | -0.0111 ± 0.062 |
| AGCCCTGA | -0.145 ± 0.054 |
| ACTGAATC | -0.285 ± 0.013 |
| GAGTCGTA | -0.00102 ± 0.018 |
| GGCCCGTA | -0.237 ± 0.082 |
| AATTCTAT | -0.13 ± 0.031 |
| CCTTTGCG | -0.0829 ± 0.011 |
| GTTGTGTA | -0.0353 ± 0.064 |
| CAAGAAAG | -0.23 ± 0.064 |
| CCACCCCC | 0.00912 ± 0.024 |
| CTTGTATA | -0.0775 ± 0.0045 |
| CCAATCAC | 0.181 ± 0.046 |
| TCTAACAA | 0.118 ± 0.035 |
| TCCCGGCA | -0.0694 ± 0.0015 |
| AGGAACCA | -0.14 ± 0.15 |
| AGTACTGC | -0.06064 ± 0.00031 |
| ATGTGCTG | 0.1768 ± 0.001 |
| GTCTGTGA | 0.0211 ± 0.036 |
| ACACGGCT | 0.131 ± 0.061 |
| ATACCAAC | 0.128 ± 0.028 |
| AATTGCTG | -0.0855 ± 0.015 |
| GCCATGAA | -0.108 ± 0.039 |
| CATACGCG | 0.0461 ± 0.029 |
| CCCTTGCA | 0.0511 ± 0.049 |

| Sequence | PBM E-score of 8-mer |
| --- | --- |
| GGAGACGA | -0.201 ± 0.0054 |
| GTCAGACA | -0.1 ± 0.0071 |
| ATGCGGCC | -0.113 ± 0.1 |
| CGGCCACC | -0.0449 ± 0.038 |
| TAACCCCA | -0.215 ± 0.026 |
| GCATCGAC | 0.0377 ± 0.0069 |
| CCAATGAC | 0.0413 ± 0.041 |
| CCAGGCGA | 0.0665 ± 0.017 |
| ATCAGCTG | -0.0117 ± 0.0022 |
| GATCGTTA | 0.0692 ± 0.034 |
| TCCTAAAA | -0.216 ± 0.029 |
| CACCAGAA | 0.211 ± 0.005 |
| AGGACACA | 0.0438 ± 0.012 |
| GATGACGA | 0.0952 ± 0.014 |
| CTTCCGAA | -0.127 ± 0.0066 |
| CATTCCAA | -0.184 ± 0.021 |
| CGCCAGAA | 0.0252 ± 0.02 |
| CTAGAAGA | -0.198 ± 0.085 |
| AAGCTCCA | -0.2848 ± 0.00034 |
| ACCGGCCC | -0.265 ± 0.0091 |
| TTAGGAAA | -0.208 ± 0.04 |
| CGGGTATC | -0.127 ± 0.032 |
